Assay results from PubChem BioAssay AID488969 (Vanderbilt High Throughput Screening Facility, 2010).
In all, about 110,000 compounds were measured (“z-score”: median about -0.1, highest 2% from about 2 on). The list shows a part of the results. Calls of active or inactive are those of the source.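 The calls were made as follows: active = z-score in the third read window above 3 or below -3; inactive = the rest.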

Each molecule was assayed against Metabotropic glutamate receptor 8 (Rattus norvegicus) (UniProt P70579) (assay: rat mGluR8 modulators via GIRK flux, primary screen, cell-based, thallium flux, HTS (AID 488969)). Details: HEK293 rat mGluR8, GIRK (G protein-gated inwardly rectifying potassium channel) thallium flux, FluoZin2; at 10 µM; stronger effect = higher value; submaximal glutamate (EC20) added with thallium.
Sequence of UniProt P70579 (P70579 whole entry, looked up): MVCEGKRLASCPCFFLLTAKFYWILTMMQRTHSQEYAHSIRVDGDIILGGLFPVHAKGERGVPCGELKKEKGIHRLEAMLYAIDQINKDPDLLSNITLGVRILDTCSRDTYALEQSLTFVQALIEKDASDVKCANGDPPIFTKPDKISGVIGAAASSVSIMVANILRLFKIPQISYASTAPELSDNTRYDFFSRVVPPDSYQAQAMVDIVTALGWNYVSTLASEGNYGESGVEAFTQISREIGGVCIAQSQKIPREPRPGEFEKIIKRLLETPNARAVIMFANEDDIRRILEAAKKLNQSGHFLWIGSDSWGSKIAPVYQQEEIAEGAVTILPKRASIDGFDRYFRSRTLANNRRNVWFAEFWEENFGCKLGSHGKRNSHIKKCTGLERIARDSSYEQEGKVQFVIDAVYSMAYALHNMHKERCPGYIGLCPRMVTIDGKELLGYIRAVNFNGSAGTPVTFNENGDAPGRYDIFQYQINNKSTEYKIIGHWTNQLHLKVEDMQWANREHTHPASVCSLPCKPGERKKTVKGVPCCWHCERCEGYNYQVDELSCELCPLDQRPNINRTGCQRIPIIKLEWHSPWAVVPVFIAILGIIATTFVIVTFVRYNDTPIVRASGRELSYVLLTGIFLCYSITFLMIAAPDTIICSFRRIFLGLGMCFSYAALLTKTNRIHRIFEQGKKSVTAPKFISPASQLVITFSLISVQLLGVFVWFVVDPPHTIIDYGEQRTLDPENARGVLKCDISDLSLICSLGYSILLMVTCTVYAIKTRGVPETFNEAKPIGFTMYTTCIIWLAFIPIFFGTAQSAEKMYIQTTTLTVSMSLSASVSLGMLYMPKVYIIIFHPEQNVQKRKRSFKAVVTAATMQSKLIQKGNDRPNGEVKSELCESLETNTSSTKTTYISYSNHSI

Going from `CC1CN(CC(O)COc2ccc(C(C)C)cc2)CC(C)O1` (stereo not given) to `CCOc1ccc(C(=O)N2CCCC2)cc1`, the z-score falls from 0.0203 to -0.0984.

First: O=C(O)Cc1ccc(NC(=S)NCc2ccco2)cc1
Second: O=C(NCc1ccco1)C1(S(=O)(=O)c2ccc(Cl)cc2)CC1
The z-score of the first is lower: -0.186 for the first, 0.211 for the second.

Going from `CCc1cccc(CC)c1NC(=O)C1CC(=O)N(c2ccc3c(c2)OCCO3)C1` (stereo not given) to `O=C(COC(=O)c1ccccc1NC(=O)C1CC1)c1ccc2c(c1)OCCO2`, the z-score falls from 0.0742 to -1.16.

Compared with `COc1cc(S(=O)(=O)N2CCOCC2)ccc1NC(=O)CSc1nnc(N)s1`, `CCn1c(SCC(=O)Nc2ccc3c(c2)OCCO3)nnc1-c1ccco1` is lower in z-score: -0.0578 for the first, -0.239 for the second.

Going from `CCC(C(=O)NC1CCCC1)N(C(=O)Cn1nnc(-c2ccc(C)cc2)n1)C1CCCC1` (stereo not given) to `CC(C)C(OC(=O)C1=Cc2ccccc2OC1)C(=O)NC1CCCC1` (stereo not given), the z-score rises from -0.114 to -0.0248.

First: CCc1nn2c(N3CCOCC3)cc(C)nc2c1-c1ccc(F)cc1
Second: O=C(CN1CCOCC1)Nc1c(-c2ccccc2)c2cc(Br)ccc2[nH]c1=O
The z-score of the first is higher: 0.146 for the first, -0.356 for the second.

Going from `CC(NC(=O)c1ccccc1Br)c1nnc(SCc2ccc([N+](=O)[O-])cc2)n1C` (stereo not given) to `CCn1c(NC(=O)c2ccc(C)cc2)c2ccccc2nc1=O`, the z-score rises from -0.173 to 0.188.

Going from `O=C(c1cc2cc([N+](=O)[O-])ccc2oc1=O)N1CCN(c2ncccn2)CC1` to `O=C(c1ccccc1)N1CCN(c2ccc([N+](=O)[O-])c(NCc3ccco3)c2)CC1`, the z-score falls from -0.0811 to -0.534.

First: Cc1cc(-c2ccccc2)n2ncc(-c3ccccc3)c2n1
Second: O=c1c2cnn(-c3ccccc3)c2nc(-c2ccco2)n1-c1ccccc1
The z-score of the first is higher: 0.389 for the first, -0.191 for the second.

First: Cc1c(C(N)=O)sc2nc(-c3ccccc3)cn12
Second: CCOc1ccccc1-c1nc(C(N)=O)c2[nH]c(=O)n(-c3ccccc3)c2n1
The z-score of the first is lower: -0.498 for the first, 0.0908 for the second.

Going from `CCc1c(C)c(C#N)c2nc3ccccc3n2c1NCCN(C)C` to `CCC(=O)Nc1nonc1-c1nc2ccccc2n1N(C(=O)CC)C(=O)CC`, the z-score rises from -1.34 to -0.00733.

First: Cc1ccc(OCc2ccc(C#N)cc2)c(C(=O)c2cc(C#N)c(=O)n(C3CC3)c2)c1
Second: CC(=O)NC(Cc1ccc(C)cc1)C(=O)NC1CCN(C(=O)c2ccc([N+](=O)[O-])cc2)CC1 (stereo not given)
The z-score of the first is lower: -0.119 for the first, 0.305 for the second.

First: CN(C)C(=S)NC1(C)CCS(=O)(=O)C1 (stereo not given)
Second: CN1C(=S)SC(C)(NO)C1(C)C (stereo not given)
The z-score of the first is lower: -0.154 for the first, 0.681 for the second.

Compared with `CCN(CC)S(=O)(=O)c1ccc(S(=O)(=O)Nc2ccc3c(c2)oc2ccccc23)cc1`, `CC(=O)Nc1ccc(S(=O)(=O)Nc2cc(C)c(-n3nc4ccccc4n3)cc2O)cc1` is higher in z-score: 0.00796 for the first, 0.525 for the second.

Going from `N#Cc1ccccc1NC(=O)CSc1nnc(-c2ccccc2)n1-c1ccccc1` to `CCOc1ccccc1NC(=O)CSc1nnnn1-c1ccccc1`, the z-score rises from 0.392 to 1.38.

Compared with `CCOc1ccc(N/C(=C(/C(Cl)=C(Cl)Cl)[N+](=O)[O-])n2cncn2)cc1`, `COC(=O)C(Cc1cnc(Cl)s1)(C(=O)OC)c1ccc([N+](=O)[O-])cc1` is higher in z-score: -0.895 for the first, -0.495 for the second.

Going from `CCOc1c(Cl)cc(CNCC(C)C)cc1OC` to `CCC(C)(C)NC(=O)Cc1ccccc1OC`, the z-score falls from 0.338 to -0.0159.

First: Cc1ccc(/C=N/NC(=O)c2cccs2)s1
Second: O=C(Nc1ccc(CN2CCOCC2)cc1)c1cccs1
The z-score of the first is higher: 1.3 for the first, 0.262 for the second.

Going from `COc1ccc(/C=N/N2CCN(C)CC2)cc1O` to `C(=N\N1CCN(Cc2cccc3ccccc23)CC1)/c1ccco1`, the z-score falls from -0.0356 to -0.0601.

Going from `CCOC(=O)c1c(NC(=O)c2ccc(Cl)cc2)csc1C` to `CCOC(=O)c1sc(NC(=O)c2cccnc2)nc1C`, the z-score falls from -0.162 to -0.674.

First: O=C(CSc1ccc(Cl)cc1)Nc1cccc(-c2nc3ccccc3[nH]2)c1
Second: O=C(CSc1ccc2ccccc2c1)Nc1ccncc1
The z-score of the first is lower: -0.441 for the first, -0.386 for the second.

Going from `O=C(NCc1ccc2c(c1)OCO2)c1ccc2c(c1)C(=O)N(CC1CCCO1)C2=O` (stereo not given) to `O=C(Cn1c(=O)n(CC2CCCO2)c(=O)c2ccccc21)c1ccc(Cl)c(Cl)c1` (stereo not given), the z-score falls from 0.355 to -0.297.

Going from `O=C(Nc1ccc2oc(-c3ccc(Cl)c(Cl)c3)nc2c1)c1ncn[nH]1` to `O=C(Nc1cc(Cl)cc(Cl)c1)C1CCC(=O)N1Cc1ccccc1Cl` (stereo not given), the z-score falls from -0.0214 to -0.359.

Compared with `COc1ccc(-c2noc(COc3ccc4c(c3)OCO4)n2)cc1`, `COc1ccc(-c2cnc(N)nc2-c2ccc(OC)cc2O)cc1` is higher in z-score: -1.18 for the first, -0.553 for the second.

Going from `S=C(NCC1CCCCC1)Nc1ccc(Oc2ccccc2)cc1` to `COc1ccc(CCNC(=O)COC(=O)C2CCCCC2)cc1`, the z-score falls from 0.317 to -0.428.

Compared with `Cc1[nH][nH]c(=O)c1C(c1ccc(-c2ccc(Cl)cc2)o1)c1c(C)[nH][nH]c1=O`, `CCOC(=O)c1ccc(N2C(=O)c3n[nH]c(C)c3C2c2ccc(OC)cc2)cc1` (stereo not given) is higher in z-score: -0.559 for the first, -0.000728 for the second.

Compared with `O=C1C2CCCN2C(c2ccccc2)N1c1ccc(F)cc1` (stereo not given), `O=C1CCC(c2ccccc2)N1C(=O)c1cccnc1` (stereo not given) is lower in z-score: -0.142 for the first, -0.511 for the second.

Going from `COC(=O)/C=C1\S/C(=N/N=C/c2ccccc2)NC1=O` to `CCOC(=O)CN1C(=O)C(C)(C)Oc2ccc(C(=O)Nc3ccccc3)cc21`, the z-score falls from -0.497 to -0.637.

First: CNC(=O)/C=C1\NC(C)(C)Cc2c1ccc1ccccc21
Second: Cc1c(C(=O)O)oc2ccc(S(=O)(=O)NCc3ccccc3)cc12
The z-score of the first is lower: -1.06 for the first, 0.326 for the second.

Going from `CCNC(=S)NNC(=O)c1cccc(Br)c1` to `CCN(CC)S(=O)(=O)c1cccc(C(=O)N[C@H](C(=O)OCC(=O)NC(=O)NC)C(C)C)c1`, the z-score falls from 0.0953 to -0.399.

Going from `COc1cc(SC)ccc1C(=O)Nc1ccon1` to `COc1cc(NC(=O)c2cccs2)ccc1NC(=O)c1ccco1`, the z-score falls from -0.218 to -1.62.

Compared with `Cn1c(=O)[nH]c(=O)c2c1nc(N1CCN(c3cccc(Cl)c3)CC1)n2CCCc1ccccc1`, `COc1ccc(N2CCN(c3nc4c(c(=O)n(C)c(=O)n4C)n3Cc3ccccc3)CC2)cc1` is lower in z-score: -0.12 for the first, -1.25 for the second.

Going from `Cc1ccc(C(=O)Cn2nnc(-c3ccccc3-n3cnnn3)n2)cc1` to `N/C(=N\OC(=O)c1ccc2c(c1)OCO2)c1ccc(Cl)cc1`, the z-score falls from 0.254 to -0.227.

Compared with `Cc1nn(C)c(Oc2ccccc2)c1CCNS(=O)(=O)c1ccccc1`, `O=S(Cc1ccccc1)CC(O)(c1ccccc1)c1ccccc1` (stereo not given) is higher in z-score: -0.194 for the first, -0.041 for the second.

Compared with `O=C(C1CC1)N1CCc2cc(S(=O)(=O)N3CCCc4ccccc43)ccc21`, `O=C(CCN1CCc2ccccc2CC1)c1ccc2c(c1)OCCO2` is higher in z-score: -0.2 for the first, 0.15 for the second.

Compared with `Cc1cccc(NC(=O)c2ccc(OCC3CCCO3)cc2)c1C` (stereo not given), `COC(=O)c1[nH]c2ccc(F)cc2c1NC(=O)Nc1ccc(OC)cc1` is higher in z-score: -0.269 for the first, 0.178 for the second.

First: COc1ccc(-c2cc(C(F)(F)F)nc(N3CCN(Cc4ccccc4)CC3)n2)cc1OC
Second: COc1ccc(Br)cc1CN1CCN(C(=O)c2cccc(OC)c2OC)CC1
The z-score of the first is lower: 0.105 for the first, 0.185 for the second.

Going from `CCN(CC)C(=O)c1scc2c1OCCO2` to `O=C(CCCN1C(=O)CCC1=O)Nc1ccc2c(c1)OCCO2`, the z-score rises from -0.422 to 0.374.

Going from `NC1=NN(c2cccc(C(=O)O)c2)C(=O)C1` to `CN1C(=O)c2ccc(NC(=S)NC(=O)C(C)(C)C)cc2C1=O`, the z-score falls from -0.0661 to -0.0666.

First: CC(C)/C=N\NC(=O)CCCCC(=O)N/N=C/C(C)C
Second: Cc1ccc(N(C(=O)c2ccc(CN3CCOCC3)o2)C(C(=O)NCCC(C)C)c2cccs2)c(C)c1 (stereo not given)
The z-score of the first is lower: -0.357 for the first, 0.742 for the second.

First: O=Cc1c(Sc2ccccn2)nc2ccccn2c1=O
Second: O=C1/C(=C\c2ccc3ccccc3c2)CCCc2ccccc21
The z-score of the first is lower: -0.196 for the first, 0.0934 for the second.

First: N#Cc1c(N)nc2c(c1-c1ccncc1)CCCCCC2
Second: c1cn(-c2ncnc3sc4c(c23)CCCC4)cn1
The z-score of the first is higher: 0.22 for the first, -0.0646 for the second.

Compared with `CCC(C)Cn1c(S(=O)(=O)O)nc2ccccc21` (stereo not given), `Cc1sc2nc(CSCC(=O)Nc3ccccc3C#N)[nH]c(=O)c2c1C` is higher in z-score: -0.238 for the first, -0.0633 for the second.

Going from `CCCCn1c(SCC(=O)Nc2nnc(CC)s2)nc2c1c(=O)n(C)c(=O)n2C` to `CCc1nnc(NS(=O)(=O)c2ccc(NC(=S)NC(=O)c3ccc(Br)cc3)cc2)s1`, the z-score rises from -1.36 to -1.21.

First: Brc1csc(/C=N/Nc2nc3ccccc3s2)c1
Second: CC(c1ccccc1)N1CCn2c(nc3cc(NC(=O)c4cccs4)ccc32)C1 (stereo not given)
The z-score of the first is higher: -0.251 for the first, -0.735 for the second.

Going from `CC(C)OCCCN1C(=O)c2[nH]nc(-c3ccccc3O)c2C1c1cccc(Cl)c1` (stereo not given) to `CCc1ccccc1NS(=O)(=O)c1ccc2[nH]cc(C(=O)NCc3ccco3)c(=O)c2c1`, the z-score rises from -0.148 to 0.208.

Going from `O=C(NC1CCN(S(=O)(=O)c2ccccc2)CC1)C1CCCCC1` to `O=C(c1ccccc1)N1CCN(CC#CC2(O)CCCCC2)CC1`, the z-score falls from 0.185 to -0.0941.

First: CC1CCC(=C(C#N)C(=O)Nc2cccc(Cl)c2)CC1 (stereo not given)
Second: Brc1cccc(-c2nnc3sc(CNC4CCCC4)cn23)c1
The z-score of the first is higher: -0.314 for the first, -0.497 for the second.

Going from `NC(=O)C1CCN(C(=O)Cc2ccc([N+](=O)[O-])cc2)CC1` to `CCOC(=O)c1c2n(c3ccc(O)cc13)CCCCC2`, the z-score falls from -0.0666 to -0.822.

Going from `Cc1cc(C(=O)OC(C(=O)Nc2cccc(C(F)(F)F)c2)c2ccccc2)c(C)o1` (stereo not given) to `O=C(CCCSc1nc(-c2ccco2)cc(C(F)(F)F)n1)Nc1ccc2c(c1)OCO2`, the z-score falls from -0.299 to -0.675.

Going from `CC1=NN(C(=O)c2ccc(Cn3nc(C)c([N+](=O)[O-])c3C)o2)C(O)(C(F)(F)F)C1` (stereo not given) to `Cc1cccc(C)c1-n1c(C)cc(/C=C2\NC(=O)NC2=O)c1C`, the z-score falls from 0.08 to -0.96.

Compared with `Nc1ccc(Sc2cc(Cl)nc(N)n2)cc1`, `Fc1ccccc1COc1ccccc1/C=N/Nc1nc(N2CCCC2)nc(N2CCCC2)n1` is lower in z-score: 0.297 for the first, -0.084 for the second.

Compared with `O=C(N1CCCCCC1)N1CCN(C(=O)N2CCCCC2)CC1`, `CC(C)n1c(=S)[nH]c2c1c(=O)[nH]c(=O)n2C` is lower in z-score: 0.0492 for the first, -0.0669 for the second.

`CCCCC1(C)NC(=O)c2c(C)sc(C(=O)OCC)c2N1` (stereo not given) gave a z-score of -0.95.

With `Cn1c(-c2sc3ccccc3c2Cl)n[nH]c1=S` the z-score was active: 13.3.
For `CC(C)CCn1c(CN2CCN(Cc3ccccc3)CC2)nc2c1c(=O)[nH]c(=O)n2C`, the z-score was active: 5.8.
`CCCN(CCC)CC(O)Cn1cc(/C=C/C(=O)c2cccs2)c2ccccc21` (stereo not given) was tested, and the z-score was active: -3.19.
